# Reference: PubChem BioAssay (NCI)
#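 These data come from cells grown in 96-well plates and exposed to compound for 48 hours at five concentrations. TGI: total growth inhibition.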 Certain results were filed several times, with different values. The other results are left out here. The source may hold further records. A record mostly stands for its own series of concentrations, not given here; a value can be the end of its range.
# Assays:
# Experiment in all cases: NCI anticancer screen, dose series, 48 h
# [1] = system: 786-0 renal
# [2] = system: DMS 273 small cell lung
# [3] = system: HCT-116 colon
# [4] = system: HCT-15 colon
# [5] = system: K-562 leukemia
# [6] = system: KM20L2 colon
# [7] = system: OVCAR-8 ovarian
# [8] = system: RXF-631 renal
# [9] = system: SN12C renal
# [10] = system: MOLT-4 leukemia
# [11] = system: EKVX NSCLC
# [12] = system: HT29 colon
# [13] = system: MDA-N
# [14] = system: NCI-H226 lung
# [15] = system: SK-OV-3 ovarian
# [16] = system: SNB-75 CNS
# [17] = system: T-47D breast
# [18] = system: U251 CNS
# [19] = system: DMS 114 small cell lung
compound,measurement,setting,value
COc1cc2ccc3c4c(OC)cc(OC)c(OC)c4c(=O)n(C)c3c2cc1OC,TGI,[1],3.75 µM and > 100 µM
same,TGI,[2],1.42 µM and > 100 µM
same,TGI,[3],2.34 µM and > 35.8 µM
same,TGI,[4],3.88 µM and > 39.8 µM
same,TGI,[5],3.27 µM and > 100 µM
same,TGI,[6],1.09 µM and > 34.9 µM
same,TGI,[7],3.97 µM and > 100 µM
same,TGI,[8],2.26 µM and > 100 µM
same,TGI,[9],1.96 µM and > 33 µM
CC(=O)O[C@H]1C(=O)O[C@@H]2C[C@H]3C(C)=CC(=O)[C@@H](O)[C@]3(C)[C@H]3[C@@]4(O)OC[C@]32[C@@H]1[C@@H](C)[C@H]4O,TGI,[3],29.1 nM and 316 nM
same,TGI,[10],> 100 µM and 66.9 nM
same,TGI,[9],156 nM and 2.04 µM
CC[C@@]1(O)C(=O)OCc2c1cc1n(c2=O)Cc2c-1nc1ccc(O)cc1c2CC[Si](C)(C)C,TGI,[1],5.18 nM and 1.13 µM
same,TGI,[11],651 nM and 7.09 µM
same,TGI,[3],47.2 nM and > 100 µM
same,TGI,[12],210 nM and > 100 µM
same,TGI,[13],1.51 µM and > 100 µM
same,TGI,[14],< 1 nM and 1.04 µM
same,TGI,[15],46.7 nM and 787 nM
same,TGI,[9],1.36 nM and > 100 µM
same,TGI,[16],8.95 nM and 21 µM
same,TGI,[17],< 1 nM and > 100 µM
same,TGI,[18],151 nM and 11.4 nM
CN(C)C(=O)/N=c1\ss/c(=N\C(=S)N(C)C)n1-c1ccccc1,TGI,[19],203 nM and > 79.3 µM
